In PMC6919601, “Identification of Plasmodium dipeptidyl aminopeptidase allosteric inhibitors by high throughput screening” (PLoS ONE, 2019):
Out of some 110,000 compounds screened, about 230 (0.21%) showed an effect of 50% or more. The list shows a part of the results.
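Also: 30 min substrate incubation versus DMSO and 10 µM JCP410 controls.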

Each compound was assayed against DPAP1 (Plasmodium falciparum, UniProt Q8IIJ9) (assay: primary screen, percent inhibition; read by cleavage of a fluorogenic dipeptide substrate; higher = more effect of the substance).
Sequence of DPAP1 (Q8IIJ9 whole entry, looked up): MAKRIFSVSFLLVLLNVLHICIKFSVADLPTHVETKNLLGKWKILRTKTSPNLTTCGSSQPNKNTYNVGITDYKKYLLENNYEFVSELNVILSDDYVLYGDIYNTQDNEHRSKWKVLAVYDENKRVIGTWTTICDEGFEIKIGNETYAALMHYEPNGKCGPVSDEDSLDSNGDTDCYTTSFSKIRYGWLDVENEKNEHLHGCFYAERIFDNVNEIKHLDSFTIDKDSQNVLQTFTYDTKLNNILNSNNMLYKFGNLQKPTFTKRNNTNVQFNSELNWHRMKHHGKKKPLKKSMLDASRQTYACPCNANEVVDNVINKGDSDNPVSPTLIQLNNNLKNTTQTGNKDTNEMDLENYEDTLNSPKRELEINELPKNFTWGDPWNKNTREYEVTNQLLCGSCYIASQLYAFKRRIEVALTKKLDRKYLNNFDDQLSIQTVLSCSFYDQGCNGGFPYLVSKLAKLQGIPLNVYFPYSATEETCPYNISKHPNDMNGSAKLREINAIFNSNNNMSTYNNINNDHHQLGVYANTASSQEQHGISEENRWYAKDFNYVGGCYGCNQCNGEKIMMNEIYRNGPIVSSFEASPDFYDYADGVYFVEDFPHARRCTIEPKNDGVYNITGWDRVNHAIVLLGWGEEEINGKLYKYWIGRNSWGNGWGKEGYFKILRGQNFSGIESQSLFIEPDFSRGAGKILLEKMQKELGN
Set-up: species or system P. falciparum D10 trophozoite lysates; single well
In the case of Cc1cccc(C(=O)Nc2cccc(C(N)=O)c2)c1, the “% Inhibition @ 10 uM” value is reported as -7.93%. For N#CCSc1nc2ccccc2s1, the “% Inhibition @ 10 uM” value was 15.8%. For CCOC(=O)C1=C(C)N=c2s/c(=C/c3ccc(C(=O)OC)cc3)c(=O)n2C1c1cccs1 (stereo not drawn), the “% Inhibition @ 10 uM” value was -0.178%. In the case of Cc1ccc(N2C(=O)CC(NCc3ccco3)C2=O)cc1 (stereo not drawn), the “% Inhibition @ 10 uM” value is reported as 0.161%. With O=C(CC(c1ccccc1)c1ccccc1)Nc1ccc2c(c1)OCCO2 the “% Inhibition @ 10 uM” value was -5.14%. For CCc1nc(N2CCCCC2)c(C#N)c2c1COC(C)(C)C2, the “% Inhibition @ 10 uM” value was 3.76%. In the case of CC1=C(C(=O)OCCOC(C)C)C(c2cc3c(cc2Br)OCO3)CC(=O)N1 (stereo not drawn), the “% Inhibition @ 10 uM” value is reported as 2.54%. For O=S(=O)(Cc1ccccc1)Nc1cccc(C(F)(F)F)c1, the “% Inhibition @ 10 uM” value was 3.44%. CC(C)c1ccc(C2C(C(=O)c3cc4ccccc4o3)=C(O)C(=O)N2CCCn2ccnc2)cc1 (stereo not drawn) was tested, and the “% Inhibition @ 10 uM” value was -6.68%. For COc1ccc(C2CC3=Nc4ccccc4NC(c4cccc(O)c4)C3=C(O)C2)cc1 (stereo not drawn), the “% Inhibition @ 10 uM” value was -0.988%. For CCOc1ccc(C(CC(=O)O)NC(=O)CCCOc2ccc(Cl)cc2C)cc1 (stereo not drawn), the “% Inhibition @ 10 uM” value was 4.32%. For O=[N+]([O-])c1ccc(N2CCN(Cc3ccc(O)cc3)CC2)cc1, the “% Inhibition @ 10 uM” value was 3.25%. For COc1c(Cl)cc(Cl)cc1/C=C(\C#N)c1nc2ccccc2[nH]1, the “% Inhibition @ 10 uM” value was 7.1%. In the case of COc1cc(S(=O)(=O)Nc2ccccc2C)ccc1/N=C/c1c(C)nn(-c2ccccc2)c1O, the “% Inhibition @ 10 uM” value is reported as -0.305%. O=C(NCC1CCCO1)c1cc(-c2cccnc2)nc2ccccc12 (stereo not drawn) was tested, and the “% Inhibition @ 10 uM” value was -4.06%. With CCNC(=O)C1c2ccccc2C(=O)N(C)C1c1cccs1 (stereo not drawn) the “% Inhibition @ 10 uM” value was -6.05%. For CCCCCCn1c(SCC(C)C)nc2c1c(=O)[nH]c(=O)n2C, the “% Inhibition @ 10 uM” value was 2.46%. In the case of O=C(NC1CCCCC1)c1ccc(C(=O)N(C2CCCCC2)C2CCCCC2)cc1, the “% Inhibition @ 10 uM” value is reported as -2%. In the case of CCOCCCNC(=O)c1nc(-c2cccc(F)c2)n2c1CCCCC2, the “% Inhibition @ 10 uM” value is reported as -3.88%. CC1(C)CC(=O)C2=C(C1)OC1=C(C(=O)CC(C)(C)C1)C2c1ccc(O)cc1O was tested, and the “% Inhibition @ 10 uM” value was -1.28%. With C=CCOc1c(Cl)cc(CNC2CCCC2)cc1OC the “% Inhibition @ 10 uM” value was -1.38%. In the case of CCOC(=O)c1c(-c2ccccc2)csc1/N=C/C1C(=O)CCCC1=O, the “% Inhibition @ 10 uM” value is reported as 3.72%. O=C(COc1ccccc1Cl)Nc1ccccc1C(=O)Nc1ccccc1 was tested, and the “% Inhibition @ 10 uM” value was -1.04%. CC(C)(C)OC(=O)N1CCC2(CC1)N=C(c1ccccc1)C(=S)N2 was tested, and the “% Inhibition @ 10 uM” value was -2.41%. In the case of Cc1cc(/C=C2/NC(=O)NC2=O)c(C)n1-c1ccc(C(C)C)cc1, the “% Inhibition @ 10 uM” value is reported as 0.487%. With Cc1cccc(NC(=O)Cc2ccccc2Cl)n1 the “% Inhibition @ 10 uM” value was 1.18%. With Cc1ccc(-n2ncc3c(NCCCO)ncnc32)cc1Cl the “% Inhibition @ 10 uM” value was -6.68%. With Cc1cccc(NC(=O)c2ccc(Cl)c(Cl)c2)n1 the “% Inhibition @ 10 uM” value was -2.09%. Cc1oc2ncn3nc(C(C)Oc4cccc5ccccc45)nc3c2c1C (stereo not drawn) was tested, and the “% Inhibition @ 10 uM” value was -3.91%. C=C(C)Cn1c(-c2ccc(OC)c(OC)c2)nc2ccccc21 was tested, and the “% Inhibition @ 10 uM” value was -1.81%. With CC1CCC(NCc2c(C(=O)O)n(Cc3ccc(F)cc3)c3ccccc23)CC1 (stereo not drawn) the “% Inhibition @ 10 uM” value was 5.09%. With CC1=C(C(=O)Nc2cc(Cl)ccc2C)C(c2ccc(N(C)C)cc2)NC(=O)N1 (stereo not drawn) the “% Inhibition @ 10 uM” value was 5.85%. In the case of Cc1ccc(CN(Cc2ccco2)C(=S)NCC(=O)N2CCC3(CC2)OCCO3)cc1, the “% Inhibition @ 10 uM” value is reported as -3.94%. With COc1ccc(NC(=O)C2=C(C)NC(=O)NC2c2ccc(N(C)C)cc2)cc1 (stereo not drawn) the “% Inhibition @ 10 uM” value was -2.18%. With CCS(=O)(=O)Nc1ccc(C(=O)c2ccccc2)cc1 the “% Inhibition @ 10 uM” value was -2.65%. For COC(=O)c1ccc(/C=c2\sc3nc(-c4ccc(C)cc4)nn3c2=O)cc1, the “% Inhibition @ 10 uM” value was -5.63%. Cc1ccc(Sc2nnc3c(=O)n(C)c(=O)n(C)c3n2)cc1 was tested, and the “% Inhibition @ 10 uM” value was -1.15%. With COc1ccc2c(CNCCc3ccccc3OC)c(C(=O)O)n(Cc3ccccc3C)c2c1 the “% Inhibition @ 10 uM” value was -2.56%. O=c1c(Oc2ccc(Cl)cc2Cl)c(C(F)(F)F)oc2cc(O)ccc12 was tested, and the “% Inhibition @ 10 uM” value was -6.83%. For O=C(O)Cn1cnc(-c2ccc(F)cc2)c1, the “% Inhibition @ 10 uM” value was -1.82%. For CSc1ncc(Cl)c(C(=O)Nc2nnc(C(C)C)s2)n1, the “% Inhibition @ 10 uM” value was 6.76%. With CC(C)Oc1ccc(C(=O)N2CCc3ccccc32)cc1 the “% Inhibition @ 10 uM” value was -1.12%. For COc1cccc(C(=O)NC2(C(F)(F)F)NC(=O)N(C)C2=O)c1 (stereo not drawn), the “% Inhibition @ 10 uM” value was 3.21%. In the case of Cc1ccc(C(=O)Nc2ccccc2C(N)=O)cc1Br, the “% Inhibition @ 10 uM” value is reported as -1.51%. For COc1ccccc1CNCc1c(C(=O)O)n(Cc2ccccc2)c2ccccc12, the “% Inhibition @ 10 uM” value was 5.09%. In the case of CCn1c(C)cc(/C=C2\NC(=O)N(CC(=O)Nc3ccc(Cl)cc3)C2=O)c1C, the “% Inhibition @ 10 uM” value is reported as 5.31%. With O=C(C1CCCO1)N1N=C(c2c(O)nc3ccc(Cl)cc3c2-c2ccccc2)CC1c1ccco1 (stereo not drawn) the “% Inhibition @ 10 uM” value was -2.77%. With O=C(NC(C(=O)c1ccccc1)N1CCCC1)c1ccco1 (stereo not drawn) the “% Inhibition @ 10 uM” value was -0.891%. In the case of Cc1oc2c(cc(O)c3ccccc32)c1C(=O)O, the “% Inhibition @ 10 uM” value is reported as 1.91%. In the case of O=C(c1cc2n(n1)C(C(F)(F)F)CC(c1ccc(F)cc1)N2)N1CCCC1 (stereo not drawn), the “% Inhibition @ 10 uM” value is reported as 1.15%. For CCOC(=O)N1CCN(c2c(NCCN3CCCCC3CC)c(=O)c2=O)CC1 (stereo not drawn), the “% Inhibition @ 10 uM” value was -11%. Cc1cccc(N(CC(=O)NCC2CCCO2)S(C)(=O)=O)c1C (stereo not drawn) was tested, and the “% Inhibition @ 10 uM” value was 1.64%. In the case of Cc1sc(C)c(-c2ccccc2)c1C(=O)O, the “% Inhibition @ 10 uM” value is reported as -4.96%. In the case of CCCOc1ccc(N2CC(C(=O)Nc3cccc(OCC)c3)CC2=O)cc1 (stereo not drawn), the “% Inhibition @ 10 uM” value is reported as 4.31%. COc1cc(NC(=O)Cn2nc(C(F)(F)F)cc2C2CC2)cc(OC)c1OC was tested, and the “% Inhibition @ 10 uM” value was 1.17%. CNc1c(NC(=O)c2cc(OC)ccc2Br)c(=O)oc2ccccc12 was tested, and the “% Inhibition @ 10 uM” value was 4.95%. With Cc1ccccc1C(=O)Nc1sc2c(c1C(N)=O)CCCC2 the “% Inhibition @ 10 uM” value was -0.622%. With COC(=O)c1ccc(NC(=O)c2ccccc2Br)cc1 the “% Inhibition @ 10 uM” value was 0.912%. For Cc1ccc(Cn2ncc3c(N4CCCC4)ncnc32)cc1, the “% Inhibition @ 10 uM” value was -8.42%. In the case of FC(F)(F)C(Oc1nc(OC(C(F)(F)F)C(F)(F)F)nc(N2CCOCC2)n1)C(F)(F)F, the “% Inhibition @ 10 uM” value is reported as 0.587%. In the case of Cc1ccc(CCNC(=O)CCCc2cn(C)c3ccccc23)cc1, the “% Inhibition @ 10 uM” value is reported as 2.05%. With Cc1ccc(C(=O)N/C(=C\c2cccs2)C(=O)N2CCOCC2)cc1C the “% Inhibition @ 10 uM” value was -2.78%. With CN(Cc1ccccc1)S(=O)(=O)c1ccc(NC(=O)Nc2ccccc2)cc1 the “% Inhibition @ 10 uM” value was -2.66%.
